Results: PubChem BioAssay AID463173 (ICCB-Longwood Screening Facility, Harvard Medical School, 2010)
The campaign covered roughly 52,000 compounds. About 1,700 (3.3%) were called active. Rule as the data show it: active = survival mostly below about 52% (no sharp cut-off); inactive = mostly above about 56%. Some of the results follow.

These compounds were tested on Wild type (assay: S. aureus survival, RN4220 and DeltatarO strains – OD600, teichoic acid synthesis inhibitors, primary screen (AID 463173)). Conditions: S. aureus RN4220 wild type/DeltatarO growth, OD600, 18 h, stronger effect = lower value, screened at 18.75 µg/mL (by protocol).
`Cc1cc(C)cc(NC(=O)CSc2nc3c(cnn3-c3ccc(F)cc3)c(=O)[nH]2)c1` was tested, and the survival was inactive: 65%. With `COc1ccc(-c2nc3c4ccccc4n(CC(=O)Nc4ccc(C(C)=O)cc4)c(=O)n3n2)cc1` the survival was inactive: 83%. For `CCc1nn(CC(=O)N2CCN(c3cc(C)ccc3C)CC2)c(=O)c2cc3occc3n12`, the survival was inactive: 75%. For `COc1ccc(CCNc2nc(SCc3ccc(F)cc3)nc3ccccc23)cc1OC`, the survival was inactive: 124%. With `O=S(=O)(Nc1ccc(-c2ccc(N3CCCCCC3)nn2)cc1)c1cccc(C(F)(F)F)c1` the survival was inactive: 128%. For `CCn1c(N2CCN(CC(=O)c3ccc(OC)cc3)CC2)nc2ccccc21`, the survival was inactive: 107%. For `N#Cc1ccc(NC(=O)c2cc(-c3cccc(Cl)c3)on2)cc1`, the survival was inactive: 87%. For `CCc1ccc(-c2nc(SCC(=O)NCC3CCCO3)c(-c3ccc(F)cc3)[nH]2)cc1` (configuration not stated), the survival was inactive: 87%. With `CNC(=O)c1ccc(CSc2nc3cccnc3n2Cc2cccc(F)c2)cc1` the survival was inactive: 128%. For `Fc1ccccc1N1CCN(c2ncc3c(n2)CCN(Cc2ccc(Br)s2)C3)CC1`, the survival was inactive: 87%. `CCC(=O)Nc1nc(-c2ccc(OC)cc2)cs1` was tested, and the survival was inactive: 102%. With `C=CCc1ccccc1OCCn1c(C2CC(=O)N(Cc3ccc(F)cc3)C2)nc2ccccc21` (configuration not stated) the survival was active: -16%. In the case of `Cc1ccc(C)c(NC(=O)N2CCc3cc(S(=O)(=O)N4CCC(C)CC4)ccc32)c1`, the survival is reported as inactive: 74%. In the case of `CN1C(=O)/C(=C2\SC(=S)N(C(CC(=O)O)C(=O)O)C2=O)c2ccccc21` (configuration not stated), the survival is reported as inactive: 113%. For `Cc1ccc2nc(-c3cccc(Cl)c3)c(Nc3ccc4c(c3)OCO4)n2c1`, the survival was inactive: 83%. For `CC(Oc1ccccc1)C(=O)OCc1cc(=O)n2nc(C(C)C)sc2n1` (configuration not stated), the survival was inactive: 115%. For `COc1ccccc1CCNC(=O)C(=O)NCC(c1cccs1)S(=O)(=O)c1ccc(F)cc1` (configuration not stated), the survival was inactive: 74%. With `Cc1ccsc1CN(C(=O)c1ccc(Br)cc1)C1CCS(=O)(=O)C1` (configuration not stated) the survival was inactive: 90%. `Cc1ccc(NC(=O)N2CCN3CCCCC3C2)cc1F` (configuration not stated) was tested, and the survival was inactive: 146%. For `COc1ccccc1CNC(=O)c1ccc2c(c1)nnn2C1CCCC1`, the survival was inactive: 136%. `O=C(Nc1cccc(-c2nc3ccccc3[nH]2)c1)c1ccccc1F` was tested, and the survival was inactive: 43%. For `CCc1ccc(S(=O)(=O)c2nnn3c2nc(NCc2cccc(OC)c2)c2cc(Cl)ccc23)cc1`, the survival was inactive: 91%. For `COc1ccc(Cl)cc1NC(=O)C1CCN(S(=O)(=O)c2ccc3c(c2)CCCN3C(=O)C2CCC2)CC1`, the survival was inactive: 72%. For `Cc1cc(=O)[nH]c2nnc(SCC(=O)Nc3ccc(F)cc3F)n12`, the survival was inactive: 88%. In the case of `COc1ccccc1NC(=O)Cn1cc(C(=O)c2ccncc2)c(=O)c2cc(C)ccc21`, the survival is reported as inactive: 127%. `COc1ccc(NC(=O)c2cc(S(=O)(=O)N3CCCCC3)cn2C)cc1Cl` was tested, and the survival was inactive: 73%. `O=C(Nc1ccc(S(=O)(=O)N2CCCCC2c2cccnc2)cc1)c1ccc(F)cc1` (configuration not stated) was tested, and the survival was inactive: 90%. `COc1ccc(CNn2cnnc2SCc2ccc(F)cc2)cc1OC` was tested, and the survival was inactive: 103%. In the case of `O=C(Nc1ccc(Cl)cc1)c1cc2c(Cl)nc3ccccc3c2s1`, the survival is reported as inactive: 123%. With `Cc1cccc(N(C)C(=O)c2cc(S(=O)(=O)N3CCCCC3)c[nH]2)c1` the survival was inactive: 81%. For `CN(C)c1ccc(-c2noc(C3CC(=O)N(c4ccc5c(c4)OCCO5)C3)n2)cc1` (configuration not stated), the survival was inactive: 79%. With `CCc1nnc2c3ccccc3nc(Nc3ccc(F)c(Cl)c3)n12` the survival was inactive: 85%. For `CCCC(CCC)C(=O)Nc1nnc2n1CCS2`, the survival was inactive: 85%. With `COC(=O)CSc1nc2sc3c(c2c(=O)n1Cc1ccccc1)CCC(C(C)(C)C)C3` (configuration not stated) the survival was inactive: 80%. `COc1ccccc1C(=O)N1c2ccccc2C(C)(c2ccc(Cl)cc2)CC1(C)C` (configuration not stated) was tested, and the survival was active: 2%. In the case of `CCN(Cc1ccccc1)C(=O)CN1C(=O)CSc2ccc(S(=O)(=O)N(CC)CC)cc21`, the survival is reported as inactive: 86%. `CCc1ccc(CNC(=O)c2nn(-c3ccc(OC)c(Cl)c3)c(=O)c3c2c2ccccc2n3C)cc1` was tested, and the survival was inactive: 83%. In the case of `CC(C)NC(=O)C(C)Oc1ccccc1` (configuration not stated), the survival is reported as inactive: 115%. With `COc1ccc(-c2c3c(nc4sc(C(=O)Nc5ccccc5F)c(N)c24)CC(C)(C)CC3=O)cc1` the survival was inactive: 129%. In the case of `CCOc1ccccc1NC(=O)CN1C(=O)COc2ccc(S(=O)(=O)Nc3ccccc3)cc21`, the survival is reported as inactive: 90%. In the case of `COc1ccc(-c2nn(CC(=O)NCc3ccccc3)c3c2cnc2ccc(F)cc23)cc1`, the survival is reported as inactive: 121%. In the case of `Cc1nnc2sc(-c3ccc(N)cc3)nn12`, the survival is reported as inactive: 108%. `O=C(Cn1c(=O)nc(-c2ccccc2F)c2cc(Cl)ccc21)Nc1ccccc1C(F)(F)F` was tested, and the survival was inactive: 72%. With `Cc1ccc(-c2nc3nc(C)cc(N4CCN(c5cccc(C)c5)C(C)C4)n3n2)cc1` (configuration not stated) the survival was inactive: 98%. With `CCCCN(C)CCCNC(=O)CN1C(=O)CSc2ccc(S(=O)(=O)N3CCOCC3)cc21` the survival was inactive: 73%. With `O=C(NCc1cccs1)c1nn(-c2ccccc2F)nc1CO` the survival was inactive: 94%. `CCC1Oc2ccc(C)cc2N(CC(=O)N(Cc2cccnc2)Cc2cccc(OC)c2)C1=O` (configuration not stated) was tested, and the survival was inactive: 104%. For `CCCCNC(=O)Cn1ncc2c(C)n(Cc3cccc(Cl)c3)c(C)c2c1=O`, the survival was inactive: 93%. With `Cc1ccc(NC(=O)C2CCCN(S(=O)(=O)c3ccc4[nH]c(=O)ccc4c3)C2)cc1C` (configuration not stated) the survival was inactive: 90%. In the case of `COc1cc2oc(=O)c(CC(=O)NCCc3ccccc3F)c(C)c2cc1OC`, the survival is reported as inactive: 87%. In the case of `CCn1cc(C(=O)N2CCN(c3ccccc3)CC2)c(=O)c2cc(S(=O)(=O)N3CCCC3)ccc21`, the survival is reported as inactive: 87%. In the case of `COc1cccc(C(=O)Nc2nc3nc(C)c(C)c(=O)n3[nH]2)c1`, the survival is reported as inactive: 115%. With `CCNC(=O)c1c(NC(=O)Cc2coc3cc(C)ccc23)sc2c1CCCC2` the survival was inactive: 94%. `CCn1c(C(=O)NCc2ccc(OC)cc2)cc2sc(Cl)cc21` was tested, and the survival was inactive: 37%. With `Cc1ccc(Nc2ncnc3onc(C)c23)cc1Cl` the survival was inactive: 80%. For `CCc1ccccc1NC(=O)Cc1cn(C)c2ccccc12`, the survival was inactive: 74%. `O=C(Nc1c(O)c2ccccc2oc1=O)c1cccc(F)c1` was tested, and the survival was inactive: 82%.
